PubChem BioAssay (Tox21)
“And” between values parts separate entries of the source, which are not always exact repeats. Equal entries are not always repeated. This list was built around the results that the source calls inconclusive (neither active nor inactive); the mix of calls is not that of the screen. For some of these results: Where the call is inconclusive, the potency comes from a doubtful curve fit. The source made the active and inactive calls. Unless noted, calls follow the shape of the dose curve; as a rule, active = well fitted curve in the direction sought with a large enough effect in the repeat runs; inconclusive = weak or mixed curves; inactive = no such curve, though single readings can be large; an effect the other way counts as inactive or inconclusive.

What was measured:
[1] = biological target: Nuclear receptor subfamily 1 group I member 3 (Homo sapiens) (UniProt Q14994); test: qHTS assay to identify small molecule agonists of the constitutive androstane receptor (CAR) signaling pathway (AID 1224839); also: nearly all actives have a fitted effect of over 15% in size; also: potency is read from the fitted curve at half-maximal effect;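 as to activation: HepG2 cells stably carrying human CAR and a CYP2B6 luciferase reporter; % is scaled to controls: 0 for no effect and ±100 for the full control effect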
Procedure, shortened: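 HepG2 cells stably expressing hCAR and a CYP2B6-2.2kb luciferase reporter were treated with compounds at 15 concentrations plus 0.75 uM PK11195 (final) for 24 h at 37 C; luminescence was read after ONE-Glo addition.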

[2] = qHTS assay to identify small molecule agonists of the hypoxia (HIF-1) signaling pathway (AID 1224846; active = well fitted activation curve with a large enough effect in the signal ratio in the repeat runs, not every such curve was filed as active; inconclusive = weak or mixed curves; the % refers to the signal ratio; also: potency is read from the fitted curve at half-maximal effect; as to activation: % is scaled to controls: 0 for no effect and ±100 for the full control effect); details: HRE-bla ME-180 cells, beta-lactamase ratio, 17 h; activation: at 76.8 µM (top of the series) unless noted
Procedure, shortened: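 Cell line: CellSensor HRE-bla ME-180; 2,000 cells/well; 0.5% dialyzed FBS; 5 h preincubation; DMSO compound pin transfer; 17 h, 37C, 5% CO2; CCF4-AM added; bla FRET signal scored for activation.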

[3] = qHTS assay to identify small molecule agonists of H2AX - cell viability counter screen (AID 1224847; calls by dose curve; also: nearly all actives have a fitted effect of over 30% in size; also: potency is read from the fitted curve at half-maximal effect)
Procedure, shortened: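 Wild-type CHO-K1 cells (10% FBS medium) were plated overnight at 37C, exposed to compounds at 15 concentrations for 3 hr at 37C (0.76% DMSO final), and viability was read as CellTiter-Glo luminescence after 30 min at room temperature.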

[4] = qHTS RealTime-Glo MT Cell Viability Assay in HEK293 cells - 16 hour (AID 1224872); also: potency is read from the fitted curve at half-maximal effect; nearly all actives have a fitted effect of over 50% in size
Procedure, shortened: (§1)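 Homogeneous bioluminescent viability format in HEK293 cells (600 cells/well). Following 5 h at 37 C/5% CO2, 23 nL compound was pintooled; the signal was measured repeatedly during 40 h incubation.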

[5] = qHTS assay to identify small molecule antagonists of the estrogen related receptor signaling pathway with the pleiotropic PPARgamma coactivator (PGC) from Tox21 10K library - cell viability counter screen (AID 1224840; active = well fitted cell-killing curve with a large enough effect in the repeat runs, not every such curve was filed as active; inconclusive = weak or mixed curves, or effect the other way; inactive = no such curve, though single readings can be large or run the other way; also: potency is read from the fitted curve at half-maximal effect; nearly all actives have a fitted effect of over 40% in size)
Procedure, shortened: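 PGC/ERR cells, 2,000/well; 6 h pre-incubation 37 C/5% CO2; cpd in DMSO via pin tool; 17.5 h 37 C; CellTiter-Fluor, 30 min; fluorescence.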

[6] = biological target: Thyrotropin receptor (Homo sapiens) (UniProt P16473); test: qHTS assay to identify small molecule agonists of the thyroid stimulating hormone receptor (TSHR) signaling pathway (AID 1224843; calls by dose curve; also: nearly all actives have a fitted effect of over 45% in size; also: potency is read from the fitted curve at half-maximal effect; as to activation: % is scaled to controls: 0 for no effect and ±100 for the full control effect); details: TSHR-HEK293 cells, cAMP HTRF, agonist mode, 30 min
Procedure, shortened: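 TSHR-expressing HEK293 cells (800 per well) were exposed to compounds for 30 min at room temperature. cAMP was then detected by HTRF competition with cAMP-d2 and anti-cAMP cryptate, read after 1 h at room temperature. Fifteen concentrations, triplicate.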

[7] = qHTS RealTime-Glo MT Cell Viability Assay in HepG2 cells - 24 hour (AID 1224867); also: potency is read from the fitted curve at half-maximal effect; nearly all actives have a fitted effect of over 50% in size
Procedure, shortened: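 Cell number in HepG2 cultures estimated from NanoLuc luminescence generated by metabolic reduction of a prosubstrate by living cells. The homogeneous, nonlytic format allowed repeated reads at 0, 8, 16, 24, 32 and 40 h of compound exposure.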

[8] = qHTS assay to identify small molecule agonists of the hypoxia (HIF-1) signaling pathway - cell viability counter screen (AID 1224844; calls by dose curve; also: potency is read from the fitted curve at half-maximal effect; nearly all actives have a fitted effect of over 50% in size)
Procedure, shortened: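 ME-180 HRE-bla cells, 2,000/well, 0.5% dialyzed FBS; 5 hr settle, 17 hr compound at 37C/5% CO2; CCF4-AM reporter read first, then CellTiter-Glo luminescence after 30 min RT.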

[9] = qHTS RealTime-Glo MT Cell Viability Assay in HEK293 cells - 32 hour (AID 1224868); also: potency is read from the fitted curve at half-maximal effect; nearly all actives have a fitted effect of over 50% in size
Procedure, shortened: as §1

[10] = qHTS RealTime-Glo MT Cell Viability Assay in HepG2 cells - 40 hour (AID 1224870); also: nearly all actives have a fitted effect of over 50% in size; also: potency is read from the fitted curve at half-maximal effect
Procedure, shortened: (§2)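 HepG2 cells mixed with RealTime-Glo MT reagents (NanoLuc plus cell-permeant prosubstrate) were seeded at 600 cells/well, incubated 5 h at 37 C/5% CO2, then pinned with compounds in DMSO; nonlytic luminescence tracked viability during 40 h treatment.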

[11] = A CellTox Green Cytotoxicity Assay to monitor cytotoxicity in HEK293 cells - 40 hour (AID 1224871); also: nearly all actives have a fitted effect of over 45% in size; also: potency is read from the fitted curve at half-maximal effect
Procedure, shortened: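 Nonlytic real-time cytotoxicity: HEK293 + CellTox Green reagent plated, 5 h preincubation, pintool compound addition (23 nL in DMSO), 37 C for 40 h, fluorescence measured at successive time points.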

[12] = qHTS RealTime-Glo MT Cell Viability Assay in HepG2 cells - 8 hour (AID 1224873); also: potency is read from the fitted curve at half-maximal effect; nearly all actives have a fitted effect of over 55% in size
Procedure, shortened: as §2

[13] = qHTS RealTime-Glo MT Cell Viability Assay in HEK293 cells - 40 hour (AID 1224874); details: RealTime-Glo luminescence; max response: stronger effect = lower value; also: nearly all actives have a fitted effect of over 50% in size; also: potency is read from the fitted curve at half-maximal effect; as to max response: % is scaled to controls: 0 for no effect and ±100 for the full control effect
Procedure, shortened: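 Cells were seeded together with NanoLuc luciferase and a prosubstrate that viable cells reduce to a luciferase substrate. After a 5 h incubation at 37 C/5% CO2, compounds were added and luminescence was measured repeatedly during 40 h of treatment.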

[14] = qHTS assay to identify small molecule agonists of H2AX (AID 1224845; active = well fitted activation curve with a large enough effect in the signal ratio in the repeat runs, not every such curve was filed as active; inconclusive = weak or mixed curves; the % refers to the signal ratio; also: potency is read from the fitted curve at half-maximal effect); details: CHO-K1 phospho-H2AX Ser139 HTRF, 3 h; activation (H2AX phosphorylation): at 154 µM (top of the series)
Procedure, shortened: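 Wild-type CHO-K1 cells plated overnight, then exposed 3 hr at 37C to compounds at 15 concentrations (0.76% DMSO). Lysed, then HTRF anti-pH2AX(S139)-cryptate/anti-H2AX-d2 detection after 24 hr at room temperature; emissions 665 and 620 nm.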

[15] = qHTS assay to identify small molecule antagonists of the estrogen related receptor signaling pathway with the pleiotropic PPARgamma coactivator (PGC) from Tox21 10K library (AID 1224841; call rule not given here)
Procedure, shortened: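 PGC/ERR cell line, 2,000 cells/well; 6 h pre-incubation 37 C/5% CO2; compounds (DMSO) pinned in; 18 h, 37 C; One-Glo, 30 min RT; luminescence.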

[16] = qHTS assay to identify small molecule antagonists of the estrogen related receptor (ERR) signaling pathway from Tox21 library (AID 1224848)
Procedure, shortened: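 Cells: ERR line, 2,000/well; 6 h preincubation 37 C/5% CO2. Cpd in DMSO via pin tool; 18 h, 37 C. ONE-Glo, 30 min RT, luminescence.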

[17] = qHTS assay to identify small molecule agonists of the estrogen related receptor signaling pathway with the pleiotropic PPARgamma coactivator (PGC) from Tox21 10K library (AID 1224842); also: % is scaled to controls: 0 for no effect and ±100 for the full control effect; nearly all actives have a fitted effect of over 15% in size
Procedure, shortened: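 PGC/ERR reporter cells (NTP line) were seeded 2,000 per well, rested 6 h at 37 C/5% CO2, then pin-dosed with compounds in DMSO for 18 h at 37 C; luciferase read by One-Glo luminescence after 30 min at room temperature.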

[18] = qHTS assay to identify small molecule agonists of the estrogen related receptor (ERR) signaling pathway from Tox21 library (AID 1224849; calls by dose curve; also: % is scaled to controls: 0 for no effect and ±100 for the full control effect; nearly all actives have a fitted effect of over 15% in size); details: ERR reporter cell line, ONE-Glo luciferase, 18 h; at 92.4 µM (top of the series)
Procedure, shortened: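 ERR cells, 6 h pre-incubation 37 C/5% CO2; cpd in DMSO pinned; 18 h 37 C; ONE-Glo added, 30 min RT; luminescence read. Agonist mode, qHTS.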

[19] = activation: at 92.4 µM (top of the series) unless noted
Tags tell the direction and shape of the fitted curve or compound fluorescence and quenching.

Chain of UniProt Q14994 (Q14994 whole entry, looked up): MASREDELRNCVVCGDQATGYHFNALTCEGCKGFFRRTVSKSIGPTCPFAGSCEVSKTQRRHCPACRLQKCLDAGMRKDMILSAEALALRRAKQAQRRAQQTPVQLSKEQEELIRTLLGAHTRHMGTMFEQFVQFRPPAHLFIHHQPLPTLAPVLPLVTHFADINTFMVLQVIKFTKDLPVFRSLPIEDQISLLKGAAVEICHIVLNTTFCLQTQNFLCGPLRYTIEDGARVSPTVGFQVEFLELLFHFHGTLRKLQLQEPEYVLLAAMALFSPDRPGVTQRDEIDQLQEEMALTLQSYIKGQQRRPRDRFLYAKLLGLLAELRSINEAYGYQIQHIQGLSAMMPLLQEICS
Chain of UniProt P16473 (P16473 whole entry, looked up): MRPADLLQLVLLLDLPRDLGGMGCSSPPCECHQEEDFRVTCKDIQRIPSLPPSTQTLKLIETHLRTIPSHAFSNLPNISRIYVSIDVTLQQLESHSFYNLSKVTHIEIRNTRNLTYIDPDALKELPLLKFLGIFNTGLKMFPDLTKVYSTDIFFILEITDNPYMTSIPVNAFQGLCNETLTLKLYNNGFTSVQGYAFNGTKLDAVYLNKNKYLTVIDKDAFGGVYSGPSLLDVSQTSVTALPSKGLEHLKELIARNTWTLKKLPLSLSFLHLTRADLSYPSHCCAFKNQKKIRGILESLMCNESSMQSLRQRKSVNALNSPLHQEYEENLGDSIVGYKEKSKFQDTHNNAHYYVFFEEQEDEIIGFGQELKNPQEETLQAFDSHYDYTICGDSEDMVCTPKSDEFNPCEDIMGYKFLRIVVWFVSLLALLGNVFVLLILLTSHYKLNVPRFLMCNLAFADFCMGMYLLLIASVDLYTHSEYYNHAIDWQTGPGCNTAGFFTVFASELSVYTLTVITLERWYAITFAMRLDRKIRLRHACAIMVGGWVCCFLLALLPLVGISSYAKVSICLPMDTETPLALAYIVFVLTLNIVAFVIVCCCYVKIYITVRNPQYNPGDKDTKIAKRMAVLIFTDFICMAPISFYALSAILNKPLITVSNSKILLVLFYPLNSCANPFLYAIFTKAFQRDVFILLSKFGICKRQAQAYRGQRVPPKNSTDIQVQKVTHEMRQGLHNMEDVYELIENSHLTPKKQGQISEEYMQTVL

For CC(C)C(Nc1ccc(C(F)(F)F)cc1Cl)C(=O)OC(C#N)c1cccc(Oc2ccccc2)c1 (centres undefined), the Potency [1] was inconclusive: 54.9 µM [activator, partial curve, poor fit], the Potency [2] was inconclusive: 49.4 µM and the Potency [3] was “inactive”. The Potency [4] was inconclusive: 62.2 µM [cytotoxic, single point].
For O=C1C(Cl)=C(Cl)C(=O)c2ccccc21, the Potency [5] was inconclusive: 68.8 µM [cytotoxic, single point], the Potency [6, 19] was inconclusive: 54.5 µM [falling, single point] and the activation [6, 19] was inconclusive: -53.5%. For the same compound, the Potency [3] was active: 22.6 µM and active: 14.2 µM, the Potency [7] was active: 24.6 µM and active: 11 µM and the Potency [4] was active: 6.19 µM and active: 9.77 µM.
With CC(=O)[O][Sn]([c]1ccccc1)([c]1ccccc1)[c]1ccccc1 the Potency [5] was active: 0.172 µM, the activation [6, 19] was inconclusive: -35.5% and the Potency [8] was inconclusive: 30.9 nM [cytotoxic, full curve, poor fit]. The Potency [2] was inconclusive: 0.0389 µM [falling, full curve, poor fit], the Potency [7] was inconclusive: 110 nM [falling, full curve, poor fit] and the Potency [9] was active: 38.9 nM. For the same compound, the Potency [10] was inconclusive: 0.11 µM [falling, full curve, poor fit], the Potency [11] was active: 0.219 µM and the Potency [12] was active: 11 µM.
In the case of CCN1CCC2(CC1)COc1cc3c(cc12)N(C(=O)c1ccc(-c2ccc(-c4nnc(C)o4)cc2C)cc1)CC3, the Potency [5] is reported as active: 17.8 µM, the Potency [6, 19] is reported as inconclusive: 44.8 µM [inhibitor, partial curve] and the Potency [8] is reported as active: 20200 nM. The Potency [2] was inconclusive: 56.9 µM [falling, single point], the Potency [3] was active: 104 µM and the Potency [4] was active: 18 µM. The Potency [13] was active: 11.3 µM.
With CC1(C)CON(Cc2ccccc2Cl)C1=O the Potency [1] was active: 48.6 µM and the Potency [11] was “inactive”.
In the case of C=CC(=O)OCC(CC)(COC(=O)C=C)COC(=O)C=C, the Potency [5] is reported as active: 8.87 µM and active: 12.2 µM, the Potency [6, 19] is reported as active: 11.2 µM and active: 15.4 µM and the Potency [8] is reported as active: 20 µM and active: 12.3 µM. The Potency [14] was inconclusive: 10.3 µM and inconclusive: 22.5 µM [activator], the Potency [2] was inconclusive: 7.97 µM [falling, full curve] and inconclusive: 12.3 µM [falling, full curve] and the Potency [3] was inconclusive: 18.4 µM [rising, partial curve] and inconclusive: 28.4 µM [rising, partial curve]. For the same compound, the Potency [9] was active: 3.56 µM and active: 11 µM.
In the case of CC(C)(C)OO, the Potency [1] is reported as “inactive”, the Potency [2] is reported as “inactive” and the Potency [3] is reported as “inactive”. For the same compound, the max response [13] was inactive: 12.3%.
For CN1C[C@H](C(=O)N[C@]2(C)O[C@@]3(O)[C@@H]4CCCN4C(=O)[C@H](Cc4ccccc4)N3C2=O)C=C2c3cccc4[nH]cc(c34)C[C@H]21, the Potency [5] was inconclusive: 17.3 µM [cytotoxic, partial curve], the activation ([6]; at 42.5 µM (top of the series)) was inconclusive: 4.08% and the activation ([6]; at 92.4 µM (top of the series)) was inconclusive: -0.587%. For the same compound, the Potency [8] was active: 24.7 µM and active: 14.4 µM, the Potency [7] was inconclusive: 22 µM [falling, partial curve] and inconclusive: 16.2 µM [falling, partial curve] and the Potency [11] was inconclusive: 24.7 µM [activator, partial curve, poor fit]. The Potency [4] was inconclusive: 43.8 µM [cytotoxic, partial curve] and the Potency [13] was inconclusive: 24.7 µM [cytotoxic, partial curve].
In the case of C[C@@H]1O[C@@H](O[C@@H]2C=C3CC[C@@H]4[C@H](CC[C@]5(C)[C@@H](c6ccc(=O)oc6)CC[C@]45O)[C@@]3(C)CC2)[C@H](O)[C@H](O)[C@H]1O, the Potency [5] is reported as inconclusive: 0.0084 µM [cytotoxic, full curve], the Potency [15] is reported as active: 23.7 nM and the activation [6, 19] is reported as inconclusive: -25% [at 42.5 µM]. For the same compound, the Potency [3] was inconclusive: 24.7 µM [cytotoxic, partial curve], the Potency [16] was active: 0.0335 µM and the Potency [9] was active: 21.3 nM. The Potency [4] was inconclusive: 0.107 µM [cytotoxic, full curve].
In the case of C1=Cc2cccc3cccc1c23, the Potency [1] is reported as inconclusive: 23.9 µM [activator, partial curve] and inconclusive: 54.5 µM [activator, partial curve], the Potency [3] is reported as “inactive” and the Potency [11] is reported as inconclusive: 60.6 µM [activator, single point]. The Potency [4] was inconclusive: 38.2 µM [rising, partial curve].
In the case of Cc1cc(-c2ccc(N)c(C)c2)ccc1N, the Potency [1] is reported as inconclusive: 26.9 µM [activator, partial curve] and inconclusive: 31 µM [activator, partial curve] and inconclusive: 7.7 µM [activator, partial curve, poor fit], the Potency [10] is reported as “inactive” and the Potency [13] is reported as inconclusive: 22.1 µM [cytotoxic, partial curve, poor fit].
With NNC(=S)NN the Potency [5] was inconclusive: 62.8 µM [cytotoxic] and inconclusive: 68.6 µM [cytotoxic, single point], the activation [6, 19] was inconclusive: 26% and the Potency [8] was inconclusive: 17.9 µM [cytotoxic, partial curve] and inconclusive: 34.7 µM [cytotoxic, partial curve]. For the same compound, the Potency [14] was “inactive and inconclusive: 56.6 µM [activator, partial curve]”, the Potency [16] was inconclusive: 61.1 µM [inhibitor] and the Potency [10] was “inactive”.
With c1ccc2cc3c(cc2c1)-c1cccc2cccc-3c12 the Potency [5] was inconclusive: 24 µM [rising, partial curve, poor fit], the Potency [17] was “inactive” and the activation [6, 19] was inconclusive: -25.8%. The activity change, positive = activation [18] was inconclusive: 12.7%.
For S=C=NCCc1ccccc1, the Potency [1] was active: 9.71 µM, the Potency [14] was inconclusive: 127 µM [activator, single point] and the Potency [7] was inconclusive: 61800 nM [falling, single point]. The Potency [10] was inconclusive: 61.8 µM [falling, partial curve, poor fit], the Potency [11] was active: 43.7 µM and the Potency [13] was active: 49.1 µM.
With CCN(CC)CCOC(=O)C(C)(c1ccccc1)c1ccccc1 the Potency [1] was inconclusive: 26.6 µM [activator, partial curve] and the Potency [13] was inconclusive: 3.38 µM [cytotoxic, partial curve, poor fit].
